{"source": "PubChem BioAssay AID504444", "about": "(National Center for Advancing Translational Sciences (NCATS), 2011)", "note": "Where “and” joins values, the source holds several entries; their conditions need not be identical. Equal values may be shown once. The whole screen tested about 360,000 compounds, of which about 7,500 (2.1%) were called active. Another 20% or so got no clear call; they are omitted. The call rests on the fitted dose curve; in most records, active means well fitted inhibition curve with a large enough effect; inconclusive means small, poorly fitted or top-dose-only effect, or effect the other way; inactive means flat fitted curve, though single readings scatter. This is a selection; strong and weak results do not stand in their true shares. Where a structure was tested more than once in an assay, its records may differ in their call. On the % scale 0 is the no-effect control and ±100 the full control effect; potency means the concentration at half of the fitted maximal effect.", "data": [{"assay": "Nrf2 qHTS screen for inhibitors; further: nearly all actives have a fitted effect of over 60% in size", "settings": "A549 ARE-Fluc reporter, luciferase luminescence, 18-24 h; series mostly up to 46 µM; activity change, negative = inhibition: at the top concentration", "procedure,_shortened": "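Quantitative HTS in A549 cells stably bearing an antioxidant response element-firefly luciferase construct. Inhibition of Nrf2-driven transcription was scored by luminescence after 18-24 h of compound exposure at 37 °C.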", "values": [{"smiles": "O=C(CSc1ncc(-c2ccccc2)[nH]1)Nc1ccccc1", "activity change, negative = inhibition": "inactive: 18.8%"}, {"smiles": "COCCCn1c(=O)c2sccc2n2c(CCCC(=O)NCc3cccc(OC)c3)nnc12", "activity change, negative = inhibition": "inactive: -1.75%"}, {"smiles": "C[C@H]1CCC[C@@]2(O[C@H](CCO)C[C@@H](O)[C@@H]2O)O1", "activity change, negative = inhibition": "inactive: -4.94%"}, {"smiles": "Nc1nc(NCc2ccccc2)c2[nH]cnc2n1", "activity change, negative = inhibition": "inactive: -14.4%"}, {"smiles": "CN(CCOc1ccc(CC2SC(=O)NC2=O)cc1)c1ccccn1", "note": "(stereo not given)", "activity change, negative = inhibition": "inactive: -28.5%"}, {"smiles": "CCCn1c2ccccc2c2cnn(CC(=O)NCCCN3CCCCC3CC)c(=O)c21", "note": "(stereo not given)", "activity change, negative = inhibition": "inactive: 22.3%"}, {"smiles": "COc1ccccc1C(=O)NCC(=O)N=Nc1c(O)n(C(C)C)c2ccccc12", "Potency": "active: 23.1 µM"}, {"smiles": "CCOC(=O)c1c(C)[nH]c(C(=O)OCC(O)=C(C#N)c2nc3ccccc3[nH]2)c1C", "activity change, negative = inhibition": "inactive: -12.3%"}, {"smiles": "CN(Cc1ccc(Cl)cc1)C(=O)c1ccc(S(=O)(=O)NCc2ccco2)cc1", "Potency": "active: 9.2 µM"}, {"smiles": "CC[C@@H]1CCCCc2ccccc2[C@H](C(=O)C[C@@H](O)CC(C)=O)OC1=O", "activity change, negative = inhibition": "inactive: -29.2%"}, {"smiles": "COc1ccc(NC(=O)c2c(NC(=O)c3ccncc3)sc3c2CCC(C(C)(C)C)C3)cc1", "note": "(stereo not given)", "Potency": "active: 18.4 µM"}, {"smiles": "O=C(CN1C(=O)c2cccnc2Oc2ccc(Cl)cc21)NCCc1ccccc1", "activity change, negative = inhibition": "inactive: -9.44%"}, {"smiles": "O=C(Cc1ccc(-n2c(=O)[nH]c3ccsc3c2=O)cc1)N1CCN(c2ccc(Cl)cc2)CC1", "Potency": "active: 23.1 µM"}, {"smiles": "COC(C[C@@H]1O[C@H]1[C@@H](O)[C@@H](C)OCc1ccccc1)OC", "activity change, negative = inhibition": "inactive: 6.16%"}, {"smiles": "COc1ccc(Nc2ncc(C(=O)N3CCN(c4ccccc4OC)CC3)c3ccccc23)cc1", "activity change, negative = inhibition": "inactive: -8.77% [at 9.27 µM]"}, {"smiles": "O=C(Nc1nnc(S(=O)(=O)N2CCCCCC2)s1)c1ccccc1", "activity change, negative = inhibition": "inactive: -10.7%"}, {"smiles": "O=C(CCl)Nc1cc(SCC(O)CO)cc([N+](=O)[O-])c1", "note": "(stereo not given)", "Potency": "active: 4.61 µM"}, {"smiles": "O=C1NC[C@H](Cc2ccc(O)cc2)N(CCc2cccc3ccccc23)C1=O", "activity change, negative = inhibition": "inactive: 13.4%"}, {"smiles": "O=C1NC(=S)S/C1=C\\c1ccc(SCc2ccccc2)o1", "Potency": "active: 20.6 µM"}, {"smiles": "CC(C)OCCCN(C)C1CCN(S(=O)(=O)c2csc(C(N)=O)c2)CC1", "activity change, negative = inhibition": "inactive: 4.78%"}, {"smiles": "Cc1ccccc1OCc1n(CC(=O)OC2CC(C)CCC2C(C)C)c2ccccc2[n+]1C", "note": "(stereo not given)", "Potency": "inactive and active: 18.4 µM"}, {"smiles": "O=C(C1=C[C@H](c2coc3ccccc3c2=O)C[C@H](OCCCCO)O1)N1CCN(Cc2ccc3c(c2)OCO3)CC1", "activity change, negative = inhibition": "inactive: -22.8%"}, {"smiles": "COc1ccccc1NC(=O)Cn1cnc2c(nc3n2CCCCC3)c1=O", "activity change, negative = inhibition": "inactive: 0.511%"}, {"smiles": "CCCC1OC2CC3C4CCC5=CC(=O)C=CC5(C)C4C(O)CC3(C)C2(C(=O)O)O1", "note": "(stereo not given)", "Potency": "active: 0.461 µM"}, {"smiles": "N=C1C=CC(=C(c2ccc(N)cc2)c2ccc(N)cc2)C=C1", "Potency": "active: 7.31 µM"}]}]}
